# The inconclusive results got no clear call from the source; some entries with a clear call stand among them for comparison. For part of these data: Potencies beside an inconclusive call are fits to weak or partial responses and may not hold up. Activity calls are given as the source filed them. Unless noted, the call rests on the fitted dose curve.
# Experiments:
# [1] = biological target: Aryl hydrocarbon receptor (Homo sapiens) (UniProt P35869); assay: qHTS assay to identify small molecule that activate the aryl hydrocarbon receptor (AhR) signaling pathway (AID 743085; active means well fitted curve in the direction sought with a large enough effect in the repeat runs; inconclusive means weak or mixed curves; inactive means no such curve, though single readings can be large; an effect the other way counts as inactive or inconclusive; further: nearly all actives have a fitted effect of over 15% in size; further: potency means the concentration at half of the fitted maximal effect;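 on activation: HG2L7.5c1 human HepG2 liver cells with stably integrated DRE-driven firefly reporter; on the % scale 0 is the no-effect control and ±100 the full control effect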)
# Sequence of UniProt P35869 (P35869 whole entry, looked up): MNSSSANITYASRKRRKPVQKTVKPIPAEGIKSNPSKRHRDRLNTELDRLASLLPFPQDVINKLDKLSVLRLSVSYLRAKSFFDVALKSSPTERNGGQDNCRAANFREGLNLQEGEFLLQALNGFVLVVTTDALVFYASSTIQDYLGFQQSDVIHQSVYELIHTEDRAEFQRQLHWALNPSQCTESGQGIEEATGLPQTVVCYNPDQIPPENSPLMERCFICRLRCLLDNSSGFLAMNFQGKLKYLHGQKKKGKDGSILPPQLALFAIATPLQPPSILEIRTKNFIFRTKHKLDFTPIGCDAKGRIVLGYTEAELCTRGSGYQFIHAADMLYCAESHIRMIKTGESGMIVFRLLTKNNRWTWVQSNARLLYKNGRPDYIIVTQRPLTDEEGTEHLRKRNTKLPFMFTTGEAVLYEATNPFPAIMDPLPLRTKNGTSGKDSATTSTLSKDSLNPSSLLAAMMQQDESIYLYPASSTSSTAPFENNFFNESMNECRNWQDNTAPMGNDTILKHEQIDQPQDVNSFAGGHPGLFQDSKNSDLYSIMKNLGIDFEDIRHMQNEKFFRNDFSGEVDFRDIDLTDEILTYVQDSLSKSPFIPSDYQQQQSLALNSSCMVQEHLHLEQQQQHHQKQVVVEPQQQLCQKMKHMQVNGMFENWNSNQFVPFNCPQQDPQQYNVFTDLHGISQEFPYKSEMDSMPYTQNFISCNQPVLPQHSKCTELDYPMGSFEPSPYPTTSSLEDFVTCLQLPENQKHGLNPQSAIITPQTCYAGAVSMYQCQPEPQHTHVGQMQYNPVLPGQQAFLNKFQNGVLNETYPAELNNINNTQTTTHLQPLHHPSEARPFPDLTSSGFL
# Summary of the method: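 Cell line HG2L7.5c1 (human hepatoma, 20× DRE-luc). Plated, 5 h 37C, compound/DMSO added, 24 h 37C. CellTiter-Fluor 30 min 37C → fluorescence; then ONE-Glo 30 min RT → luminescence.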
# [2] = qHTS assay to identify small molecule antagonists of the estrogen receptor alpha (ER-alpha) signaling pathway using the BG1 cell line - cell viability counter screen (AID 743081; active means well fitted curve in the direction sought with a large enough effect in the repeat runs; inconclusive means weak or mixed curves; inactive means no such curve, though single readings can be large; an effect the other way counts as inactive or inconclusive;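 further: compound given together with 17beta-estradiol as the ER stimulus; nearly all actives have a fitted effect of over 45% in size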; further: potency means the concentration at half of the fitted maximal effect)
# [3] = biological target: Peroxisome proliferator-activated receptor gamma (Homo sapiens) (UniProt P37231); assay: qHTS assay to identify small molecule antagonists of the peroxisome proliferator-activated receptor gamma (PPARg) signaling pathway (AID 743191); conditions: HEK293H PPARg-UAS-bla, beta-lactamase ratio, antagonist, 17 h; further: nearly all actives have a fitted effect of over 30% in size; further: potency means the concentration at half of the fitted maximal effect; on ratio activity, negative = inhibition: on the % scale 0 is the no-effect control and ±100 the full control effect
# Sequence of UniProt P37231 (P37231 whole entry, looked up): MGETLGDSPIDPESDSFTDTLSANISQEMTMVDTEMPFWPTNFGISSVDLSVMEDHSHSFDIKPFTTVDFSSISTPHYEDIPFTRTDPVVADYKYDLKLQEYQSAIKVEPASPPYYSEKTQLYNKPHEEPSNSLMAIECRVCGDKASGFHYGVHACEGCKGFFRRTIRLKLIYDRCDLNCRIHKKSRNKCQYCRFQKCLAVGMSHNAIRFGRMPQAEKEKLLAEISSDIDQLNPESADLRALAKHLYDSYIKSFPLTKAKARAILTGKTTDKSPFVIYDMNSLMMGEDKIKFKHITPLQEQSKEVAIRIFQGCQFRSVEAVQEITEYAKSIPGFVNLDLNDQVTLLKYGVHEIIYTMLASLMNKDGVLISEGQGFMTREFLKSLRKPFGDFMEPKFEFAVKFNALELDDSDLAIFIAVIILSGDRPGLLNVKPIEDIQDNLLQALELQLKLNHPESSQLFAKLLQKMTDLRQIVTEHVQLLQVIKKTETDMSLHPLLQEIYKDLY
# Summary of the method: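 GeneBLAzer PPARg UAS-bla HEK293H cells, 5 h post-plating, exposed to compounds 17 h at 37C. LiveBLAzer B/G FRET substrate added for 1 h at room temperature; beta-lactamase reporter read by fluorescence intensity.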
# [4] = biological target: Peroxisome proliferator-activated receptor gamma (Homo sapiens) (UniProt P37231); assay: qHTS assay to identify small molecule agonists of the peroxisome proliferator-activated receptor gamma (PPARg) signaling pathway (AID 743094; active means well fitted activation curve with a large enough effect in the signal ratio in the repeat runs, not every such curve was filed as active; inconclusive means weak or mixed curves, or effect the other way; inactive means no such curve, though single readings can be large or run the other way; the % refers to the signal ratio; further: on the % scale 0 is the no-effect control and ±100 the full control effect); conditions: HEK293H PPARg-UAS-bla, beta-lactamase FRET ratio, 17 h; activation: at 57 µM (top of the series) unless noted
# Summary of the method: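 Agonist activity was taken from a beta-lactamase reporter (FRET substrate, 1 h at room temperature) in HEK293H cells carrying a PPARg UAS-bla construct. Compounds in DMSO were incubated 17 h at 37C after a 5 h cell pre-incubation.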
# [5] = qHTS assay to identify small molecule that activate the aryl hydrocarbon receptor (AhR) signaling pathway - cell viability counter screen (AID 743086; active means well fitted curve in the direction sought with a large enough effect in the repeat runs; inconclusive means weak or mixed curves; inactive means no such curve, though single readings can be large; an effect the other way counts as inactive or inconclusive; further: potency means the concentration at half of the fitted maximal effect; nearly all actives have a fitted effect of over 45% in size)
# Summary of the method: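 HepG2-AhR-luc (HG2L7.5c1) cells, 4000/well, treated 24 h at 37 C with compound; viability measured as CellTiter-Fluor fluorescence after 30 min in the same wells as the luciferase read.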
# [6] = qHTS assay to identify aromatase inhibitors - cell viability counter screen (AID 743084; active means well fitted curve in the direction sought with a large enough effect in the repeat runs; inconclusive means weak or mixed curves; inactive means no such curve, though single readings can be large; an effect the other way counts as inactive or inconclusive;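 further: cells stimulated with testosterone during compound exposure; on the % scale 0 is the no-effect control and ±100 the full control effect; nearly all actives have a fitted effect of over 55% in size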)
# Aromatase (Homo sapiens) = Aromatase (Homo sapiens) (UniProt P11511); assay: qHTS assay to identify aromatase inhibitors (AID 743083; active means well fitted curve in the direction sought with a large enough effect in the repeat runs; inconclusive means weak or mixed curves; inactive means no such curve, though single readings can be large; an effect the other way counts as inactive or inconclusive; further: potency means the concentration at half of the fitted maximal effect; nearly all actives have a fitted effect of over 55% in size)
# Sequence of UniProt P11511 (P11511 whole entry, looked up): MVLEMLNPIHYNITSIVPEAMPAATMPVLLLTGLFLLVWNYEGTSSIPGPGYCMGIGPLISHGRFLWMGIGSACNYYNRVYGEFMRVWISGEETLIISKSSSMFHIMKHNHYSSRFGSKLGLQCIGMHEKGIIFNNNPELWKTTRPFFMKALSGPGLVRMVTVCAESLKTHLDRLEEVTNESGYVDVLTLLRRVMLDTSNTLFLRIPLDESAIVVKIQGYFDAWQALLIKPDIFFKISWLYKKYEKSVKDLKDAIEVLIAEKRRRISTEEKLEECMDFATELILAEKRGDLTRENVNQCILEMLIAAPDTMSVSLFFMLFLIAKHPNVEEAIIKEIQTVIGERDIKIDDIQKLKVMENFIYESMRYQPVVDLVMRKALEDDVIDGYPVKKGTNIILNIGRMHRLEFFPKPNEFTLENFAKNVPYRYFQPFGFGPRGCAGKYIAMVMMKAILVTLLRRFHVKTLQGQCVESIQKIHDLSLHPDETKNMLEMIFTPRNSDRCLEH
# [7] = ratio activity, negative = inhibition: at 62.6 µM (top of the series) unless noted
# Tags describe the fitted curve by direction and shape or compound fluorescence and quenching.
smiles,measurement,setting,value
O=[N+]([O-])c1cccc(O)c1,Potency,[1],inactive
Clc1ccccc1Cl,Potency,[2],"inconclusive: 9.44 µM [rising, partial curve]"
same,"ratio activity, negative = inhibition",[3]; at 62.6 µM (top of the series),inconclusive: 4.96%
same,"ratio activity, negative = inhibition",[3]; at 81.1 µM (top of the series),inconclusive: 32%
COCCC#N,Potency,[4],inactive
same,"ratio activity, negative = inhibition",[3]; [7],inconclusive: -0.541%
Cc1ccc([N+](=O)[O-])[c]2c1[O][Hg]2,"ratio activity, negative = inhibition",[3]; [7],inconclusive: -11.4%
CCN(CC)CCOC(=O)C(C)(c1ccccc1)c1ccccc1,Potency,[2],"inconclusive: 23.7 µM [cytotoxic, partial curve, poor fit]"
same,Potency,[5],"inconclusive: 26.6 µM [falling, partial curve, poor fit]"
CCOc1ccc(C(C)(C)COCc2cccc(Oc3ccccc3)c2)cc1,Potency,[6],inactive
same,"ratio activity, negative = inhibition",[3]; [7],inconclusive: 19.4%
CC(=O)C(Cl)Cl,Potency,[3]; [7],inactive
Sc1ccccc1Cl,"ratio activity, negative = inhibition",[3]; [7],inconclusive: 1.88%
COC[C@@H](NC(C)=O)C(=O)NCc1ccccc1,Potency,[3]; [7],inactive
C[C@]12CC[C@@H]3c4ccc(OC(=O)N(CCCl)CCCl)cc4CC[C@H]3[C@@H]1CC[C@@H]2O,Potency,[6],inactive
same,"ratio activity, negative = inhibition",[3]; [7],inconclusive: -54.3%
CC(C)[C@H](C(=O)OC(C#N)c1cccc(Oc2ccccc2)c1)c1ccc(OC(F)F)cc1 (stereo partly specified),Potency,Aromatase (Homo sapiens),"inconclusive: 30.6 µM [inhibitor, partial curve, poor fit]"
same,activation,[4],inconclusive: 18.8%
CC(C)(C#N)C(C)(C)C#N,"ratio activity, negative = inhibition",[3]; [7],inconclusive: 10.5% [at 81.1 µM]
CCc1cccc(C)c1N(C(=O)CCl)[C@@H](C)COC,Potency,Aromatase (Homo sapiens),"inconclusive: 77 µM [inhibitor, single point]"
same,activation,[4],inconclusive: -12.5%
same,Potency,[3]; [7],"inconclusive: 15.5 µM [rising, partial curve]"
CCCCCCC1CCOC1=O (stereo unspecified),"ratio activity, negative = inhibition",[3]; [7],inconclusive: 15.3%
CCN(N=O)C(N)=O,Potency,[2],inactive
same,Potency,[4],inactive
O=C(Cc1ccccc1)OCCc1ccccc1,"ratio activity, negative = inhibition",[3]; [7],inconclusive: 3.43%
C=CCc1ccc(OC(=O)Cc2ccccc2)c(OC)c1,Potency,[2],inactive
same,Potency,[1],"inconclusive: 68.6 µM [activator, partial curve, poor fit]"
same,Potency,[4],inactive
same,"ratio activity, negative = inhibition",[3]; [7],inconclusive: -8.7%
O=c1c(C2CC(c3ccc(-c4ccc(Br)cc4)cc3)Cc3ccccc32)c(O)sc2ccccc12 (stereo unspecified),Potency,[3]; [7],"inconclusive: 29.8 µM [rising, partial curve, poor fit]"
Cn1cc(C2=C(c3cn(C4CCN(Cc5ccccn5)CC4)c4ccccc34)C(=O)NC2=O)c2ccccc21,Potency,[2],inconclusive: 11.9 µM [cytotoxic]
CCOC(=O)C1(c2ccccc2)CCN(CCc2ccc(N)cc2)CC1,"ratio activity, negative = inhibition",[3]; [7],inconclusive: 2.69%
BrC(Br)Br,"ratio activity, negative = inhibition",[3]; [7],inconclusive: -16.4%
ClC=C(Cl)Cl,Potency,[4],inactive
same,Potency,[3]; [7],inactive
